Measurements: US20220387487A1 (ALETA BIOTHERAPEUTICS, published 2022)
“And” between values parts separate entries of the source, which are not always exact repeats. Identical values can stand only once.

T1: CLL-1 (CLEC12A) on CLL-1 positive cell lines (U937, OCI-AML-5) (human, UniProt Q5QGZ9 1-265)
T1 construct: whole, on cells; also called MICL
T1 sequence: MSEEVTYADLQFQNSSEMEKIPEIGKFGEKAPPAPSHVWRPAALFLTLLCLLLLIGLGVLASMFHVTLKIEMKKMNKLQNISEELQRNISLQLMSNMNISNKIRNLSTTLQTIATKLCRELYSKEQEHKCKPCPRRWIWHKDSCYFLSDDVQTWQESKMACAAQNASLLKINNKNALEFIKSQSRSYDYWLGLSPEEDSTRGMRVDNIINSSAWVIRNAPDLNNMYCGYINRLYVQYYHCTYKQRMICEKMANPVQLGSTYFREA

B1: anti-CLL-1 scFv-anti-CLL-1 VHH(2H3)-CD19 variant (construct #357) (other)
chain: DMAQVQLQESGPGLVKPSETLSLTCVVSGGSISSSNWWSWVRQPPGKGLEWIGEIYHSGSPDYNPSLKSRVTISVDKSRNQFSLKLSSVTAADTAVYYCAKVSTGGFFDYWGQGTLVTVSSGGGGSGGGGSGGGGSEIELTQSPSSLSASVGDRVTIT[about 80 residues left out]FGPGTKVEIKRTGGGGSGGGGSGGGGSGGGGSQVQLQESGGGLVQAGGSLRLSCVASGSIRSINVMGWYRQAPGKQRELVAACASDGNTYYADSVKGRFTISRDNAEKTVYLQMNNLKPDDTAVYYCDANSRGNYYSGQGTQVTVSSTSGPGGQGAGGGGSGGGGSGGGGSGGGGSPEEPLVVKVEEGDTAALWCLKGTSDGPTQQLTWSRESPLKPFLKYSLGVPGLGVHVRPDAISVVIRNVSQQMGGFYLCQPGPPSEKAWQPGWTVNVEGSGELFRWNVSDLGGLGCGLKNRSSEGPSSPSGKLMSPKLYVWAKDRPEIWEGEPPCLPPRDSLNQSLSRDLTVAPGSTLWLSCGVPPDSVSRGPLSWTHVHPKGPKSLLSLELKDDRPARDMWVMGTSLMLPRATAQDAGKWYCHRGNLTMSFHLEITARPSRHHHHHH
notes: Biparatopic fusion: anti-CLL-1 scFv, anti-CLL-1 VHH 2H3, CD19 variant, His tag; also called biparatopic fusion protein #357; HIS-tagged biparatopic construct
B2: CD19-anti-CLL-1 scFv (construct #186) (other)
chain: PEEPLVVKVEEGDNAVLQCLKGTSDGPTQQLTWSRESPLKPFLKLSLGLPGLGIHMRPLAIWLFIFNVSQQMGGFYLCQPGPPSEKAWQPGWTVNVEGSGELFRWNVSDLGGLGCGLKNRSSEGPSSPSGKLMSPKLYVWAKDRPEIWEGEPPCLPPRDSLNQSLSQDLTMAPGSTLWLSCGVPPDSVSRGPLSWTHVHPKGPKSLLSLELKDDRPARDMWVMETGLLLPRATAQDAGKYYCHRGNLTMSFHLEITARPGGGGSGGGGSGGGGSGGGGSDMAQVQLQESGPGLVKPSETLSLTCVVSGGSISSSNWWSWVRQPPGKGLEWIGEIYHSGSPDYNPSLKSRVTISVDKSRNQFSLKLSSVTAADTAVYYCAKVSTGGFFDYWGQGTLVTVSSGGGGSGGGGSGGGGSEIELTQSPSSLSASVGDRVTIT[about 80 residues left out]FGPGTKVEIKRTHHHHHH
notes: Fusion of wild type CD19 extracellular domain, linker, anti-CLL-1 (CLEC12A) scFv and His tag; also called scFv fusion protein

How the values were obtained:
[1] = biological target: T1, CLL-1 (CLEC12A) on CLL-1 positive cell …; assay: flow cytometry on CLL-1 positive U937 cells, expressed fusion protein, detection with FMC63-PE, % Binding
[2] = biological target: T1, CLL-1 (CLEC12A) on CLL-1 positive cell …; assay: flow cytometry on CLL-1 positive U937 cells, FMC63-PE detection
[3] = biological target: T1, CLL-1 (CLEC12A) on CLL-1 positive cell …; assay: cell-based or functional assay
[4] = biological target: T1, CLL-1 (CLEC12A) on CLL-1 positive cell …; assay: flow cytometry on U937 cells, purified fusion protein, a-His-PE detection, % Binding
[5] = biological target: T1, CLL-1 (CLEC12A) on CLL-1 positive cell …; assay: cell-based or functional assay; remark: listed apart in the source

| Binder | EC50 [1] | EC50 [2] | CAR-CD19 cytotoxicity relative to fusion protein #330, E:T 5:1 [3] | CAR-CD19 cytotoxicity relative to fusion protein #330, third assay, E:T 5:1 [3] | potency of killing relative to fusion protein #321 [3] | potency of killing relative to fusion protein #330 [3] | EC50 [4] | CLEC12A-cell cytotoxicity (IC50 n = 2-3) [5] |
| --- | --- | --- | --- | --- | --- | --- | --- | --- |
| B1 | 0.0493 µg/mL | 0.7 nM | ~15 fold | ~15 fold | ~25 fold | ~8 fold | 0.000219 µg/mL and 0.0031 nM | 0.00065 nM |
| B2 | 0.566 µg/mL | 10 nM |  |  |  |  | 1.83 µg/mL and 32.6 nM | 0.1 nM |
